Source: PubChem BioAssay AID485281 (National Center for Advancing Translational Sciences (NCATS), 2010)
Screen size: about 350,000 compounds; about 260 (0.074%) were called active. The inconclusive results got no clear call from the source; some entries with a clear call stand among them for comparison. Calls follow the shape of the dose curve; as a rule, active = well fitted inhibition curve with a large enough effect; inconclusive = small, poorly fitted or top-dose-only effect; inactive = no such curve, though single readings can be large or run the other way. Where the call is inconclusive, the potency comes from a doubtful curve fit.

These molecules were tested against Ferritin light chain (Equus caballus) (UniProt P02791) (assay: qHTS Assay for Identification of Novel General Anesthetics). Settings: apoferritin/1-aminoanthracene competitive binding, fluorescence; series mostly up to 77.5 µM.
Summary of the method: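 Read-out: endpoint 1-AMA fluorescence, excitation 380 nm and emission 535 nm, after compounds sit 10 min at room temperature with 10 uM horse-spleen apoferritin in 50% saturated 1-AMA/PBS. Values come from four-parameter Hill fits.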
Also: nearly all actives have a fitted effect of over 20% in size.
Potency is read from the fitted curve at half-maximal effect; tags tell the direction and shape of the fitted curve.

Chain of UniProt P02791 (P02791 whole entry, looked up): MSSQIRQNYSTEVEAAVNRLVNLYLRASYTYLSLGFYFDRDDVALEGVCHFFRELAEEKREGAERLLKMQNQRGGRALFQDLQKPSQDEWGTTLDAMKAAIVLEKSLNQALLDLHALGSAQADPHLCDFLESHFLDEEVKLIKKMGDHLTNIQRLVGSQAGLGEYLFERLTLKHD

Which Potency does the source give for `CCc1cc(=O)oc2cc(OCC(=O)NCCCn3ccnc3)ccc12` here?
Its Potency is “inactive”.

How did the Potency turn out when `N#Cc1c(-c2ccccc2)ccn(Cc2cccc(Cl)c2)c1=O` was run?
The Potency was inconclusive: 20 µM [inhibitor, partial curve, poor fit].

Which Potency does the source give for `Cc1ccccc1Nc1nc(N)c2ccccc2n1` here?
Its Potency is inconclusive: 35.5 µM [inhibitor, single point].

With `O=C(CSc1nnnn1-c1ccccc1)CC(=O)Nc1ccc(Cl)cc1` as the molecule, how does the Potency read?
Its Potency is inconclusive: 50.1 µM [inhibitor, single point].

`C/C(=C\C(=O)c1ccccc1)NCc1ccc(F)cc1` was tested. Which Potency did it give?
Its Potency is inconclusive: 28.2 µM [inhibitor, partial curve].

Which Potency does the source give for `CC(C)C[C@@H](C(=O)NCc1ccco1)N1C(=O)N2CCc3c([nH]c4ccccc34)[C@@]2(C)C1=O` here?
Its Potency is inconclusive: 31.6 µM [inhibitor, partial curve].

With `CCOc1cc(C2C(C(=O)OC)=C(C)N=C3SC(C)C(=O)N32)ccc1OC(C)=O` (configuration not stated) as the molecule, how does the Potency read?
The Potency was inconclusive: 25.1 µM [inhibitor, partial curve].

How did the Potency turn out when `CCCCCCC(=O)N/N=C/c1ccc(Br)cc1` was run?
The Potency was inconclusive: 22.4 µM [inhibitor, partial curve].

With `Cc1nc2ccc3nc(NC(=O)C4COc5ccccc5O4)sc3c2s1` (configuration not stated) as the molecule, how does the Potency read?
The Potency was “inactive”.

Which Potency does the source give for `CNC(=O)C1CCN(C(=O)N2CC(C)Oc3ccc(Cl)cc32)CC1` (configuration not stated) here?
The Potency was inconclusive: 14.1 µM [inhibitor, partial curve].

For `CCC(C)(C)c1ccc(OCCCC[n+]2cccc(C)c2)c(C(C)(C)CC)c1`, which Potency is on record?
Its Potency is inconclusive: 12.6 µM [inhibitor, partial curve].

For `COc1cc(/C=N/NC(=O)c2cc(-c3cccn3C)n[nH]2)cc(OC)c1OC`, which Potency is on record?
Its Potency is inconclusive: 22.4 µM [inhibitor, partial curve].

With `CCCCCCCC(=O)N/N=C/c1ccc([N+](=O)[O-])o1` as the molecule, how does the Potency read?
Its Potency is inconclusive: 20 µM [inhibitor, partial curve].

For `Cc1cc(Br)ccc1SCC(=O)OCC(=O)NC(C)c1ccccc1` (configuration not stated), which Potency is on record?
Its Potency is inconclusive: 56.2 µM [inhibitor, single point].

For `Cc1c(C)c2ccc(OC(C)C(=O)N3CC[C@@]4(O)CCCC[C@H]4C3)cc2oc1=O` (some centres not stated), which Potency is on record?
Its Potency is inconclusive: 39.8 µM [inhibitor, single point].

`Cc1ccc(S(=O)(=O)NCCNc2ccccc2[N+](=O)[O-])cc1` was tested. Which Potency did it give?
Its Potency is inconclusive: 35.5 µM [inhibitor, partial curve].

`C/C(CC(=O)Nc1ccc(N(C)C)cc1)=N\NC(=O)c1ccc([N+](=O)[O-])cc1` was tested. Which Potency did it give?
The Potency was inconclusive: 14.1 µM [inhibitor, partial curve].
